Some of the results follow. Shown are side measurements of this screen, not its main read-out; they come without a call. The list favours compounds with an active or inconclusive main result.
Experiment: qHTS Assay for Lipid Storage Modulators (AID 1519)
Conditions: Drosophila S3 cells, BODIPY lipid droplet/cell ratio, laser cytometry; measured here: cell count channel max response; cells loaded with oleic acid
In short: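 Cells seeded at 5,000 per well were treated with compounds over a concentration series and loaded with oleic acid (400 uM, as added). Lipid droplet fluorescence (488 nm excitation, 500-530 nm channel) was read by laser-scanning cytometry and normalized to 20 uM Triacsin C.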

Row | Structure (SMILES) | max response
1 | CC[C@@]1(O)CC2CN(CCc3c([nH]c4ccccc34)[C@](C(=O)OC)(c3cc4c(cc3OC)N(C)C3[C@@](O)(C(=O)OC)C(OC(C)=O)[C@]5(CC)C=CCN6CC[C@@]43C65)C2)C1 (some centres undefined) | 23.2%
2 | CN1CCN(C2=Cc3ccccc3Oc3ccc(Cl)cc32)CC1 | 44.8%
3 | CN1C(C(=O)Nc2ccccn2)=C(O)c2sccc2S1(=O)=O | 25.2%
4 | O=C(Nc1ccccc1)N1CCCC2(CCN(C(=O)c3cccc(F)c3)CC2)C1 | 19.6%
5 | CN(C)C(=O)Nc1ccc(Cl)c(Cl)c1 | 27.5%
6 | NCCS | 24.8%
7 | O[C@H](CN1CCN(c2cccc(Cl)c2)CC1)C(c1ccccc1)c1ccccc1 | 74.3%
8 | COc1c2occc2c(OC)c2c(=O)cc(C)oc12 | 14.5%
9 | CCCCCCC[N+](CC)(CC)CCCCc1ccc(Cl)cc1 | -15.2%
10 | COC(=O)N1CCC2(CCN(C(=O)Nc3ccc(OC)cc3)CC2)CC1 | 16%
11 | COC(=O)N1CCC2(CCCN(C(=O)Nc3ccccc3)C2)CC1 | 10.2%
12 | COc1cccc(-c2nccc(NCc3cccs3)n2)c1 | 1.6%
13 | CC(=O)Oc1cc(C(F)(F)F)ccc1C(=O)O | 0.451%
14 | c1ccc(CNc2ncncc2-c2ccc3c(c2)OCO3)cc1 | 10.6%
15 | OCC1O[C@H](Oc2ccc(O)cc2)C(O)C(O)C1O (some centres undefined) | 10.2%
16 | CN(C)CCN(Cc1cccs1)c1ccccn1 | 56.9%
17 | c1ccc(-c2ccc(N3CCCC4(CCNCC4)C3)cc2)cc1 | 11.2%
18 | Cc1ccccc1-c1ccc2ncnc(NCc3cccs3)c2c1 | 2.52%
19 | c1ccc(N2CCN(CCCOc3ccc4c(c3)OCO4)CC2)cc1 | 114%

— PubChem BioAssay (NCATS)
